The results in this text go back to the supplement of paper PMC11417369.

The list shows a part of the results.

The assay has as its system PfSIP2 AP2 domain 1 (GST-tagged). Description: gcPBM binding intensity (ln(normalized median fluorescence intensity)); higher = stronger DNA binding. An outline of the steps: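 The highest Masliner-normalised natural-log median intensity across replicate spots of either probe orientation is reported as binding intensity. GST-tagged P. falciparum DNA-binding domains expressed in E. coli were applied for 1 h to an Agilent 4 × 180k array of primer-extended double-stranded 36-bp intergenic genomic probes plus negative controls, and bound protein was detected with Alexa488 anti-GST antibody and scanned at 488 nm.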
As to “GGATAAGAGGCATATACACACAATTTAAAAAAATAA [CACACA_site4657]”, the “gcPBM binding intensity (ln)” value was 7.15.
To “TATATTTATACTTATACACACATTATTGAATTAACC [CACACA_site934]” belongs 7.18; to “ATTATTTATATTTGGAGTACTTATAATATTTTTATA [XGTACX_site1289]”, 7.24.
To “AGTGTAAGCTAAGTGGTGCGTTGAATAAGGTTTTTT [GTGCAC_site9951]” belongs 8.75.
To “TATAGGTATTTGTATACACACAAATGTATATATCTA [CACACA_site6713]” belongs 6.81; to “AAAATATTTATTCCTAGTACTTACCATTATATATAT [XGTACX_site363]”, 7.7; to “AAAAAAAAATGAAAAGAAAAAAAAAGAAAAAAGGGA [CACACA_negctrl_site287]”, 6.9.
On to “CTTTATATATTTTATTGTACTTAAAAAAAAAAAAAA [XGTACX_site2134]”, for which the “gcPBM binding intensity (ln)” value was 7.39.
To “AAAAAATATGCATATACACACATATGTATAAATAAC [CACACA_site7090]” belongs 7.17; to “AAAAAAAAAAAAAACACACACACACGCATACACATA [CACACA_site7364]”, 7.61.
Take “AAGAGGATACACAATGTGCACTTTTTTTTTTTTTTT [GTGCAC_site9415]”: the “gcPBM binding intensity (ln)” value worked out at 10.5.
Consider “TATACAGATATATATACACACATATATATAAATACA [CACACA_site4383]”, for which the “gcPBM binding intensity (ln)” value worked out at 7.09.
Regarding “ATAAATAAAACAAATAGTACAATATAAAAAAAAAGG [XGTACX_site87]”, the “gcPBM binding intensity (ln)” value is 7.36.
To “TATATATATAATATATGTACTCATATTAAGAGATAC [XGTACX_site1354]” belongs 8.28; to “AATGAGCTTTTTAAAAGTACTAAATATAAATAAATA [XGTACX_site3632]”, 6.74.
With “TATATATGTATATTTTGTACGTATTTATTTACATGA [XGTACX_site4584]” the figure was 6.75.
With “AATAGTTGCTAAAGGTGTACAATACATTTATTAGAA [XGTACX_site2773]” the figure was 7.19; with “TATTACTTAAATAAAAGTACATATAACATTTTAGTT [XGTACX_site196]”, 6.95; with “TCTTTGGTATTTACATGTACATATTCTTAAAAACAT [XGTACX_site3124]”, 7.4.
On to “TGTATAGTCTAAAGTTGTACAAAAAAAAAAAAAAAA [XGTACX_site5764]”, for which the “gcPBM binding intensity (ln)” value was determined as 7.05.
To GAAAATAAAATATTAGTGCATTATTTGATCAATAAT belongs 8.23; to “GTTAATATTTTTGGGGGTACTTAAAAAAAAAAAAAA [XGTACX_site1477]”, 7.78.
To “AATTTAAAAAATAATTGTACAAAAAAAAAAAATCAG [XGTACX_site4576]” belongs 7.27; to TTACATACAATTGGTGTGCACATATATATATATATA, 9.93.
To “CAAAAGGATAGGCACACACACACACCGATATATATA [CACACA_site8685]” belongs 7.38; to “GAATATTAATTCAAGTGTACAAATATATATATAATT [XGTACX_site5103]”, 7.13; to “TAATAAGGAATTTATAGTACATATTCATATGTTTTA [XGTACX_site2331]”, 6.66.
For “ATAATATAAATATACACACACACATATATATATATA [CACACA_site2905]”, the “gcPBM binding intensity (ln)” value was 9.19.
As to “ATAAAAATTTATATATGTACTTAATTTTTAATTTTT [XGTACX_site7482]”, the “gcPBM binding intensity (ln)” value was 6.96.
To TATGTTTTTGAATGAGTGCATTAAAATAAAACATTT belongs 8.97.
To “TTCTTGTATATTCATAGTACATATAATGTCGTGTTA [XGTACX_site8991]” belongs 7.13.
Regarding “AAATAAAGAAATGCAAGTACATACTAAACTAATCCA [XGTACX_site1209]”, the “gcPBM binding intensity (ln)” value is 6.72.
To “TCTTAAATTATGATAAAATATAATAAATAAATAAAT [CACACA_negctrl_site1520]” belongs 6.71.
With “ATATATATTATAATCTGTACATAAATATATAATAAA [XGTACX_site5425]” the figure was 7.29; with “TTGTTTTATACATAGTGTACATATAAAAATTTTTTT [XGTACX_site7549]”, 7.28.
With “ATTTTCCCTAGAATATGTACACATAGTAAATATTAT [XGTACX_site7499]” the figure was 6.93; with “ATATATAAATATGAAACACACATTCTATTTAATTCG [CACACA_site1450]”, 6.89; with “CAGATAAATAAACACACACACACATATATATATATA [CACACA_site9311]”, 9.68.
Turning to “TATGTTTCTATATATACATGCAAGAAGAAATGTACT [TGCATGCA_site891]”, the “gcPBM binding intensity (ln)” value stood at 7.1.
To “AAAAAAAAAAAAGAAAAATATATATATAAATAAATA [GTGCAC_negctrl_site569]” belongs 6.98; to “ATATGTACAAATTATACACACATGTACAATTATATA [CACACA_site1253]”, 7.32.
With “ATGTCACAATTTTTCACACACAAAATTTATATACAT [CACACA_site2030]” the figure was 7.29; with “AATTATACTCACGTTACACACACACTAGATATATAT [CACACA_site6133]”, 7.28.
With “TTTTTTTTTTTTTTTTGTACATATATATAAAAAATA [XGTACX_site2772]” the figure was 7.02.
Regarding “TAATATTACATTTATTGTACTTTGTTTTTATTTTAT [XGTACX_site1605]”, the “gcPBM binding intensity (ln)” value was 6.81.
In the case of “CCCACAATGGTTTATATACACACTGTTGCAAATTCT [CACACA_site3066]”, the “gcPBM binding intensity (ln)” value was determined as 7.01.
On to “ATTGAAAAAATACAATGTACATAGTAATACAAAGAA [XGTACX_site4142]”, for which the “gcPBM binding intensity (ln)” value turned out to be 7.33.
With “TGTTTCTAAGAATTTACACACAAAATATTTCTACAT [CACACA_site7846]” the figure was 6.86; with “TAATACTTAATGAACACATGCACATATACATAGTAT [TGCATGCA_site496]”, 8.03; with “TTAAAAATTAAAAGTAGTACATATAATATAAACATT [XGTACX_site424]”, 6.98.
With “AAAAAAAAAAATTGCACACAAAAAAAAAAAAAAAAA [CACACA_site2073]” the figure was 7.33; with “ATAATTATACAAAAGCGTACACGATATAAATCTACG [XGTACX_site8115]”, 7.5; with “CTTAAATCCATAATATGTACTTAAAAAGAAAAAATA [XGTACX_site4765]”, 7.06.
To “AGACAATTTTTTAGTACACACATATAGATATATAAA [CACACA_site6832]” belongs 7.39; to “TTATAAAAAAAAAAAAAAAAAAAAACCAATATAATA [CACACA_negctrl_site968]”, 6.63; to “TTTATTCTAAAATATTAAAAATGATTTGTTTTTTCA [CACACA_negctrl_site1751]”, 6.55.
On to “GTATTATAAAAAGGAAGTACATATATACATATTATA [XGTACX_site1271]”, for which the “gcPBM binding intensity (ln)” value was determined as 6.98.
